Laboratory results: PMC12136788
The list shows a part of the results.

B1: chr1:162599429:162599460:+|3pUTR|ENSG00000117143|msi1_unk|FALSE|overlapping (ssRNA)
RNA: GGGAGUUCUACAGUCCGACGAUCGGUAUUUGAACCAGAUACCAAGUUUUGUUUGCCACGAUAGGAAUAGCUUUUAUUUUUGAUAGACCAACUGUGAACCUACAAGACGUCUUGGACAACUGAAGUUUAAAUAUCCACAGGGUUCAACAGAGGAUUGAGCAUCA
B2: chr9:127733218:127733560:-|CDS|ENSG00000160404|control|control|control (ssRNA)
RNA: GGGAGUUCUACAGUCCGACGAUCGAGGUUCAGCUCUACAGCCUUAGCCUGUGCUCCCAGCAGAAUCCAGUUCCCCAUGGGCUUAGCUGGGCUUUCCCAGUGCCCUCCGCCACUCUCAGAGAUGACAUUGUCAUUCCGCCUGGUCAACAGAGGAUUGAGCAUCA
B3: chr2:9585027:9585123:-|3pUTR|ENSG00000134308|msi1_unk|total|mutant (ssRNA)
RNA: GGGAGUUCUACAGUCCGACGAUCGGAAAACUUCAUUCCUUGAUUUGUGUUUGUCUUGGCCUUCCUGGUGUGCAGUACUGCUGCCGAAAAGUAUUAACCGCUUCAUUUCAUAUAAACAUAAGUAACUCCCAAACACUUAUGCCGCAACAGAGGAUUGAGCAUCA
B4: chr2:216672581:216672718:-|3pUTR|ENSG00000115461|msi1|total|mutant (ssRNA)
RNA: GGGAGUUCUACAGUCCGACGAUCCACUCCACCAGUCCCCGGUCGCCAGCCGGAGUCUCCUCUCUACCGCCACUGUCACACCGCCGCCCACAUGGACCGCACAGUUGUCAGACAAGAUUCCUUCAGAUUCCGAGUUGCCUACCGCAACAGAGGAUUGAGCAUCA
B5: chr20:54218986:54219149:+|CDS|ENSG00000101132|unk|FALSE|unique (ssRNA)
RNA: GGGAGUUCUACAGUCCGACGAUCAAAUUUGCAAGAAGAAAUUGACGCCUUAGAAUCCAGAGUGGAAUCAAUUCAGCGAGUGUUAGCAGAUUUGAAAGUUCAGUUGUAUGCAAAAUUCGGGAGCAACAUAAACCUUGAAGCUGACAACAGAGGAUUGAGCAUCA
B6: chr13:19993219:19993350:+|CDS|ENSG00000121741|unk|total|mutant (ssRNA)
RNA: GGGAGUUCUACAGUCCGACGAUCUGAUGAUGAUGUUGUUUUUAUCGAACCUGUACAACCUCCCCCACCUUCUGUACCAGUGGCCGCUGAUCAAAGAACCAUAACAUUUACAUCAUCAAAAAAUGAAGAACUACAAGGAAAUGACAACAGAGGAUUGAGCAUCA

target: MSI1 full-length (mouse, UniProt Q61474 1-362); experiment: nsRBNS (natural sequence RNA bind-n-seq); RBNS binding buffer (assumed for nsRBNS): 25 mM Tris pH 7.5, 150 mM KCl, 3 mM MgCl2, 0.01% Triton X-100, 500 ug/ml BSA, 20 U/ml SUPERase-In, 4 C; UNK is unkempt and MSI1 is Musashi-1; names of the RNAs are library labels; protein concentration not given here; high values mean tight binding
Chain of UniProt Q61474 (Q61474 whole entry): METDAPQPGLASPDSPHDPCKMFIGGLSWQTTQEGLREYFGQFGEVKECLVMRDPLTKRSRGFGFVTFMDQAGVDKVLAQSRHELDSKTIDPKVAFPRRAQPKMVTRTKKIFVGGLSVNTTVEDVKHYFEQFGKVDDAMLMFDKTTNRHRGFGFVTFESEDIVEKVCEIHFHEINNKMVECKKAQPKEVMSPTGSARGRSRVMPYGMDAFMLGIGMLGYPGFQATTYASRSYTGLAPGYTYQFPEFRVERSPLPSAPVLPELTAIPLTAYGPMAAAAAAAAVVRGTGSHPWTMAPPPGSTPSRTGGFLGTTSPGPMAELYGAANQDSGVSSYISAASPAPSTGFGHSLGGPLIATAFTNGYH

| Binder | binding signal |
| --- | --- |
| B1 | 1.18 enrichment R |
| B2 | 0.495 enrichment R |
| B3 | 0.333 enrichment R |
| B4 | 0.679 enrichment R |
| B5 | 0.378 enrichment R |
| B6 | 0.471 enrichment R |
